# Measurements published in the supplement of paper PMC10338343.
# ± gives the standard deviation. Only a part is listed here, and it is no random draw.
# Tested on: MIWI (PIWIL1) piRISC loaded with L1MC piRNA (30 nt)
# Experiment: pre-steady-state target cleavage rate (min^-1); MIWI and MILI are mouse PIWI proteins and EfPiwi is from a freshwater sponge; tags in brackets are library labels; higher = faster piRNA-guided slicing of the target
# Settings: guide: L1MC piRNA 5'p-UAACUAAAUACUAUGCAAGCUGUAGGUCCU; auxiliary factor: 500 nM mouse GTSF1
# Procedure, shortened: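 Cleave-'n-Seq measured uncleaved targets by sequencing after a transcribed, DNA-blocked target RNA library […] was mixed with 1 nM active affinity-purified piRISC holding one synthetic guide, with or without 500 nM GTSF1 partner protein, at 33 °C in HEPES–potassium acetate buffer for 0–8 or 0–960 min. Counts were normalised to depth and to weakly complementary targets, three trials were pooled, and k3 was capped at 0.0001 min^-1. A burst-and-steady-state fit gave the pre-steady-state cleavage rate.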
# 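Further: 1 nM active piRISC with 0.1 nM target library at 33 °C single turnover.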
row,Sequence,pre-steady-state target cleavage rate
1,UGGACCUACUCGUUGCAUAGUAUUUACAAA,0.0236 ± 0.0059
2,UCCUGGAUGUCCUUGCAUUGUAUUUACUUA,0.00619 ± 0.0038
3,UCCUGGUACAGCUUGCAAUGUAUUUACAAA,0.0171 ± 0.0072
4,UCCUCCUACUCCUUGCAUAGUAUUUUCAAA,0.216 ± 0.035
5,AGGACCUACAGCAAGCAUAGUAUUUACAAA,0.555 ± 0.086
6,UCCACCUUCAGCUUGCAUAGUAUUUACAAA,0.304 ± 0.037
7,UCCUGGAUGUGCUAGCAUACUAUUUAGUUA,0.00834 ± 0.004
8,UCCUGGAUGUCGUUGCAUAGUAUUAAGUUA,0.00483 ± 0.0034
9,UCCUGGAACAGCUUGCAUAGUAUAUUCAAA,0.166 ± 0.041
10,UCGACCUACAGCUUGCAAUGUAUUUUCAAA,0.0886 ± 0.026
11,UCCUGGAUGAGCUUGCAUAGUAUUAUCAAA [g7:g21:cont:t1A],0.0183 ± 0.0063
12,UGGACCUACAGCUUGCAUUCUAUUUUCAAA,0.0045 ± 0.0031
13,UCCACCUACAGCUUGCAUAGUAUUAACAAA,0.375 ± 0.056
14,AGGACCUACAGCUUGCAUAGUAUAAAGAAA,0.434 ± 0.077
15,UCCUGCUACAGCUACGAUAGUAUUUAGUAA,0.105 ± 0.031
16,AGGACCUACAGCUUGCAAUGUAUUUACAAA,0.0775 ± 0.019
17,UCCUGGAUGUCGAACGAUACUAUUUAGUUA,< 0.0001
18,UCCUCCUACAGCUUGCAUAGUAUUUUCAUA,0.261 ± 0.034
19,UCCUGGAUGAGCUUGACAUAGUAUUUAGUUA,0.201 ± 0.019

row,Sequence,pre-steady-state target cleavage rate
1,UCCUGCUACAGCUUGCAAUGUAUUUACAAA,0.0711 ± 0.015
2,UCCUGGAAGAGCUUGCAUAGUAUUUACAAA,0.0945 ± 0.02
3,UCCUCCUAGUGCUUGCAUAGUAUUUUCAAA,0.0841 ± 0.017
4,AGGACCUACAGCUUCGAUAGUAUUUAGUUA,0.818 ± 0.056
5,UCCUGCUACAGCUUGCAAAGUAUUUUCAAA,0.278 ± 0.053
6,UCCUGGAUGUCGUUGCAUACUAUUUAGUUA,0.00357 ± 0.0027
7,UCCUGCUACAGCUUGGUUAGUAUUUACAAA,0.0104 ± 0.0047
8,UCCUGGAUGAGCUUGCAUAGUAUUAUCUUA,0.0411 ± 0.011
9,AGGACCUACAGCAAGCAUAGUAUUUAGAAA,0.615 ± 0.083
10,UCCUGGAUCAGCUUGCAUAGUAUUUAUUA,0.112 ± 0.018
11,UCCUGGAUGUCGUUGCAUAGUAUUUAGUCA,0.00397 ± 0.0038
12,UCCUCCUACAGCUUCGUUAGUAUUUAGAAA,0.00561 ± 0.0041
13,UCGACCUACAGCUUGCAUAGUUAAUACAAA,0.126 ± 0.036
14,UCCUGGAUGACGUUGCAUAGUAUUUAGUAA,0.0132 ± 0.0049
15,UCCUGCUACAGCUUGGUUAGUAUUUAGAAA,0.0586 ± 0.014
16,UCCUCCUACAGCUUGCAUAGUAAAAAGAAA,0.204 ± 0.052
17,UCCUGGAUGAGCUUGCAUAGUAUUUUCAUA,0.0798 ± 0.02
18,UCCUCCUACACCUUCCAUAGUAUUUAGUUA,0.0661 ± 0.024
19,UCCUGCUACAGCUUGCAUUCUAUUUUCAAA,0.0098 ± 0.0053
